Some of the results follow. These are noisy estimates, calculated here from bound and input reads.

This assay concerns the target T1, Pho4 (S. cerevisiae) (UniProt P07270).
T1 sequence: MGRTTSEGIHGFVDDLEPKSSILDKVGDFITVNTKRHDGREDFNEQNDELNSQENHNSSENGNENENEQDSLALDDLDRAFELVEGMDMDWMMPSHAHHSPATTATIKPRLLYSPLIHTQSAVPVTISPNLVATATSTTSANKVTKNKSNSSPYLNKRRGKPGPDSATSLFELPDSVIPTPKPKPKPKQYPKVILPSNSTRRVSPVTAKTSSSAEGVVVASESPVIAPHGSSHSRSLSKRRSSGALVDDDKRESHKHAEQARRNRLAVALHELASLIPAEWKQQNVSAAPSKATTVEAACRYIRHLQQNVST
The experiment in a line: relative binding free energy (BET-seq); higher = weaker binding. To be noted: reference: library average.
Take TGTCTCACGTGTTGGT: the “relative binding free energy” value is 0.31 kcal/mol. Take TAGGTCACGTGTGGGT: the “relative binding free energy” value stood at 0.26 kcal/mol. As for ATTGCCACGTGGAGGG, the figure is -0.07 kcal/mol. In the case of AAGCTCACGTGGGGAT, the “relative binding free energy” value worked out at 0.15 kcal/mol.

With AGTAACACGTGTTATG, the “relative binding free energy” value came to 0.06 kcal/mol.

Turning to TTGGACACGTGCGGTA, the “relative binding free energy” value was -0.08 kcal/mol. With GGTGACACGTGCTGAG, the “relative binding free energy” value is -0.05 kcal/mol. On to GATTGCACGTGTGGTA, for which the “relative binding free energy” value is 0.16 kcal/mol. As for ATGAGCACGTGTACGG, the figure is -0.1 kcal/mol; as for TGCGGCACGTGGAAGA, 0 kcal/mol; as for TTGGGCACGTGGGTAG, -0.09 kcal/mol. On to ATATGCACGTGCCGGG, for which the “relative binding free energy” value is -0.12 kcal/mol. Take AGTGGCACGTGAGGAT: the “relative binding free energy” value stood at 0.08 kcal/mol. As to AGTGGCACGTGTTCAT, the “relative binding free energy” value was -0.06 kcal/mol.

As to GTGGTCACGTGAAGAA, the “relative binding free energy” value is 0.21 kcal/mol. As for ATGGGCACGTGAAGGT, the figure is 0.23 kcal/mol; as for AGACTCACGTGTTGGA, 0.31 kcal/mol. On to TCTTTCACGTGATTGA, for which the “relative binding free energy” value is 0.37 kcal/mol. Turning to CGGGTCACGTGCCGTG, the “relative binding free energy” value came out at 0.04 kcal/mol.

In the case of CGGTACACGTGTGGGT, the “relative binding free energy” value turned out to be 0.13 kcal/mol. As for AATAGCACGTGGAACG, the figure is 0.24 kcal/mol; as for TTTATCACGTGCAGGG, 0.12 kcal/mol; as for TAAGACACGTGGTGTG, -0.16 kcal/mol.

As for GGTCTCACGTGGAAGG, the “relative binding free energy” value was 0.29 kcal/mol. Consider GGTGGCACGTGTTACG, for which the “relative binding free energy” value is -0.1 kcal/mol. On to GGGTTCACGTGTCAAG, for which the “relative binding free energy” value was determined as 0.26 kcal/mol. Consider GGGGTCACGTGACTGC, for which the “relative binding free energy” value came out at 0.4 kcal/mol. For the sequence ATTTTCACGTGGTCGT, the “relative binding free energy” value amounted to 0.26 kcal/mol.

For the sequence TGTCGCACGTGGAATA, the “relative binding free energy” value was 0.02 kcal/mol. Consider TAATGCACGTGGTTCA, for which the “relative binding free energy” value was -0.03 kcal/mol. Regarding ATGTCCACGTGGTTAG, the “relative binding free energy” value was -0.1 kcal/mol. The value for GATAACACGTGTTATG was -0.1 kcal/mol; that for TGGGTCACGTGTGAGG was 0.22 kcal/mol.

For the sequence TTGGGCACGTGTCGTC, the “relative binding free energy” value is -0.15 kcal/mol. As to GTATGCACGTGAAGTT, the “relative binding free energy” value came out at 0.25 kcal/mol. Take ACGATCACGTGGAGGG: the “relative binding free energy” value is 0.05 kcal/mol.

In the case of AGGTTCACGTGTCAAG, the “relative binding free energy” value stood at 0.25 kcal/mol.

In the case of TTATTCACGTGATGTC, the “relative binding free energy” value came to 0.31 kcal/mol. As for TAGTACACGTGAGTGC, the figure is 0.14 kcal/mol; as for TTTCGCACGTGTGAGA, 0.03 kcal/mol; as for TTATTCACGTGAGATA, 0.41 kcal/mol. As for TGCGACACGTGTAGGG, the figure is -0.03 kcal/mol; as for AGTAGCACGTGTCTGG, -0.21 kcal/mol; as for TGTGGCACGTGTATTG, -0.01 kcal/mol. In the case of AGTCGCACGTGGTGAG, the “relative binding free energy” value was -0.03 kcal/mol.

TGTGTCACGTGCTGAT: the “relative binding free energy” value is -0.05 kcal/mol.

With TGATGCACGTGTATAT, the “relative binding free energy” value came out at 0.05 kcal/mol. For the sequence ATTCTCACGTGGGGAA, the “relative binding free energy” value was 0.08 kcal/mol. As for TAGGGCACGTGGCTTT, the “relative binding free energy” value is -0.16 kcal/mol. The value for TGGTGCACGTGTACGT was -0.09 kcal/mol. On to CTTTACACGTGGATGG, for which the “relative binding free energy” value amounted to 0.07 kcal/mol. The value for AGGAGCACGTGAGAGG was 0.17 kcal/mol; that for TTCTTCACGTGATGAG was 0.24 kcal/mol; that for CGGGACACGTGTAATG was 0.17 kcal/mol. As to ATTTGCACGTGGATGA, the “relative binding free energy” value was determined as 0.03 kcal/mol.

Regarding AGAAACACGTGGGAAG, the “relative binding free energy” value was determined as 0.07 kcal/mol. With GAAATCACGTGGGTAG, the “relative binding free energy” value is -0.04 kcal/mol. Consider TGCATCACGTGGGGCA, for which the “relative binding free energy” value turned out to be 0.02 kcal/mol.

For GTTAGCACGTGGTGCT, the “relative binding free energy” value is -0.15 kcal/mol. Turning to GGTTCCACGTGTTGTG, the “relative binding free energy” value was 0 kcal/mol. For the sequence TGGGTCACGTGGGCAG, the “relative binding free energy” value is -0.01 kcal/mol. TGTACCACGTGTGGTA: the “relative binding free energy” value is -0.07 kcal/mol. As for TTTTCCACGTGTTTAA, the figure is 0.15 kcal/mol.

With TAGGACACGTGTTTTA, the “relative binding free energy” value was -0.07 kcal/mol. As for CGGGTCACGTGTGATT, the figure is 0.29 kcal/mol; as for GGTCTCACGTGCATGG, 0.2 kcal/mol.

AGTATCACGTGGTTTG: the “relative binding free energy” value is 0 kcal/mol. The value for GGTTGCACGTGTCTAG was 0.03 kcal/mol; that for TCCTTCACGTGTTGTG was 0.14 kcal/mol. In the case of ATTGACACGTGAGTGT, the “relative binding free energy” value is 0.23 kcal/mol. Consider TCTTTCACGTGATTAT, for which the “relative binding free energy” value was found to be 0.21 kcal/mol. As for GGTTTCACGTGTTCGG, the figure is 0.44 kcal/mol; as for AGTGGCACGTGGGAAA, -0.13 kcal/mol. In the case of AAGGGCACGTGAAAGG, the “relative binding free energy” value is 0.12 kcal/mol. Consider TCTGGCACGTGGCTTT, for which the “relative binding free energy” value is -0.05 kcal/mol. As to GTCGGCACGTGATGGG, the “relative binding free energy” value is 0.19 kcal/mol.

Consider GGTCGCACGTGGAAGT, for which the “relative binding free energy” value turned out to be 0.08 kcal/mol. In the case of TAGAGCACGTGAGATG, the “relative binding free energy” value amounted to 0.12 kcal/mol. Take GTTAGCACGTGTCGAT: the “relative binding free energy” value turned out to be 0.01 kcal/mol. In the case of ATTTGCACGTGGAGAG, the “relative binding free energy” value was -0.09 kcal/mol. For the sequence GAATTCACGTGGGCTT, the “relative binding free energy” value is 0.24 kcal/mol. Consider TCTTTCACGTGAGGCG, for which the “relative binding free energy” value stood at 0.39 kcal/mol. As for GTGGGCACGTGATGCT, the “relative binding free energy” value was 0.14 kcal/mol. With ATTGCCACGTGGAGGT, the “relative binding free energy” value was -0.28 kcal/mol. For the sequence GGAGTCACGTGGCATG, the “relative binding free energy” value was 0 kcal/mol. Take CATGGCACGTGTTCTT: the “relative binding free energy” value is 0.06 kcal/mol. As for ACTTGCACGTGTTTAG, the “relative binding free energy” value came out at 0.02 kcal/mol. As for ATAAGCACGTGTTTAG, the figure is -0.09 kcal/mol; as for TTAGTCACGTGGCGGA, -0.04 kcal/mol; as for GGTTGCACGTGTACTT, 0.29 kcal/mol. For GGGGTCACGTGAGAAT, the “relative binding free energy” value is 0.4 kcal/mol. As to TAGTTCACGTGGGCTG, the “relative binding free energy” value came out at 0.22 kcal/mol. As to ATCATCACGTGTTTGG, the “relative binding free energy” value is 0.15 kcal/mol.

For GTGGTCACGTGTTGCG, the “relative binding free energy” value was 0.12 kcal/mol.

TATTACACGTGGGTAA: the “relative binding free energy” value was 0.07 kcal/mol.

As for TAGGGCACGTGGGTTT, the “relative binding free energy” value is -0.1 kcal/mol. For the sequence ATATGCACGTGTTTAG, the “relative binding free energy” value was -0.13 kcal/mol. With AGTAACACGTGAGGGC, the “relative binding free energy” value was 0.2 kcal/mol. As to AGGGTCACGTGAGCCG, the “relative binding free energy” value stood at 0.29 kcal/mol. As for GAAGTCACGTGAGCGG, the figure is 0.32 kcal/mol; as for GATGTCACGTGAATGG, 0.3 kcal/mol; as for GTCCTCACGTGTAGGG, 0.25 kcal/mol. In the case of TTGCTCACGTGGGAGT, the “relative binding free energy” value is -0.01 kcal/mol. Regarding GCCTGCACGTGAGGTG, the “relative binding free energy” value was found to be 0.41 kcal/mol. With GAGGGCACGTGGCATG, the “relative binding free energy” value was -0.23 kcal/mol. As to CAGGGCACGTGGGATT, the “relative binding free energy” value was 0 kcal/mol. For AGTTACACGTGAGGTG, the “relative binding free energy” value turned out to be 0.3 kcal/mol. As for CTGGCCACGTGGTGCG, the figure is -0.24 kcal/mol; as for GTTTACACGTGCCGGG, 0.01 kcal/mol; as for TGGCTCACGTGTCGAG, 0.28 kcal/mol. TTTCGCACGTGCTTGG: the “relative binding free energy” value is -0.07 kcal/mol. The value for TGGTTCACGTGGGATT was 0.25 kcal/mol; that for ACGATCACGTGGGTTG was -0.13 kcal/mol; that for GGGTGCACGTGGGCTT was -0.07 kcal/mol. The value for TGTTTCACGTGCGAAG was 0.33 kcal/mol.

The record behind these values is the BET-seq Pho4 binding data (Le et al. 2018).
